Measurements reported in the supplement of paper PMC11417369.
Some of the results follow.

Test system: PF3D7_0420300 AP2 domain 1 (GST-tagged)
Experiment: gcPBM binding intensity (ln(normalized median fluorescence intensity)); higher = stronger DNA binding
Procedure, shortened: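 GST-tagged P. falciparum DNA-binding domains, expressed in E. coli (about 25 μg on average), were applied for 1 h to an Agilent 4 × 180k array of primer-extended double-stranded 36-bp intergenic genomic probes plus negative controls. The binding buffer was 1× PBS with 1% milk, 0.2 mg/ml BSA, 0.5% salmon testes DNA and 0.03% Triton X-100. Bound protein was detected with Alexa488 anti-GST antibody and scanned at 488 nm. Binding intensity is the highest Masliner-normalised natural-log median intensity across replicate spots of either probe orientation.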

Sequence	gcPBM binding intensity (ln)
TTTTTAAAACATATCACACATATATATATATATATA [CACACA_site5991]	9.11
TATTTTTATAAAAATCGTACAAGTGATCCAATTTTT [XGTACX_site4402]	9.05
CCGTATTCAAAAAGGAGTACACAATTATATGTTATA [XGTACX_site641]	9.15
ATATGAGAGAATAAAACACACAAAAAAAAAAAAAAA [CACACA_site2865]	9.22
TAATAATCAAGTTAACGTACAAAATCATCTATAGAA [XGTACX_site5921]	9.39
TTATATAGGCAGATGGTGCATCTATTTATAAGCAAC	9.16
AAAAATTAAAAGAAAATACACACCTGTGGGTGCTTA [CACACA_site1988]	9.13
TATTTTTTTTGTTAGGTGCATTTACATTTATTTTTA	9.49
TGTATGTATTTTCAATGTACATAAAAAAAAAAAAAA [XGTACX_site4397]	8.78
AAAAAAAAAAGTTCTACACACACAAAAAAATATTTT [CACACA_site8725]	9.92
AAATTAATACATTATTGTACTTTTCATGTGCAGAAA [XGTACX_site8284]	9.03
TAATTCGCATTTTATACACACATTCGAACCTTTTTT [CACACA_site7549]	9.76
CATATTACATTAAATTGTACATATATATATATATAT [XGTACX_site3295]	9.2
CGGATGAATATATATGCACACATCTTTTGTAAAAAT [CACACA_site3190]	9.27
TGTATAAATATATGCACACATATATATATTTATATA [CACACA_site3473]	9.16
GAGAAAAAAAAAAAAAAACACACGGTACATTCAAAG [CACACA_site1767]	9.52
TCAATAAATGAATATGCATGCACGCTCTTTAGAGAT [TGCATGCA_site553]	9.23
AAAAAAAAAAAAAAATGTACATATATATAAATATAT [XGTACX_site6768]	9.1
TATGTAATGTTTACAACACACAAATTATAAATACAA [CACACA_site1771]	9.31
ATATATATATATATATGTACATATTTTTATTTATAC [XGTACX_site2858]	9.12
TATTTATATGTATATACATGCACATATATATGAAAC [TGCATGCA_site1005]	9.33
CTATTTTATATGTGCACACATATACTCAGACAAATA [CACACA_site4761]	9.46
ACCTATATACTAAATGCACACTTATATATTTATATA [CACACA_site5371]	9.58

Sequence	gcPBM binding intensity (ln)
AACATACACATATACACACACACATATATACCTATA [CACACA_site6643]	10.4
AAGAAAAAAAAAATTACACACTGCGGACATACACAA [CACACA_site4838]	9.72
TCAATTTTACTTGTTTGTACATAAAATAATAAGGTT [XGTACX_site3732]	9.07
ATATTTTGTTTTTGTTCTTTTTTTTTCTTTTTTTTT [CACACA_negctrl_site1342]	9.87
ACTTTGCTCTACAATGCATGCTCATTTAACAAGGCA [TGCATGCA_site676]	9.04
ATATCTACTATACAACTGAGTGTAGAAAAATTAAAC [CACACA_negctrl_site1211]	9.42
TATATTAAATGAAACAAACACACATAGCCTTTAAAT [CACACA_site1559]	9.68
ATATTTATAAATTGCACACAAATAATAACATTCTAT [CACACA_site2357]	9.44
TATTATTATTATGGTAGTACATGTAGGTTATTAAAA [XGTACX_site5742]	9.26
AATTGGGAAGGACATGCATGAGAAATTAATATTGCA [TGCATGCA_site424]	9.32
AAAAATAAATATATATGTACACATATGTATACAATA [XGTACX_site4692]	9.28
GAAATAAATATAATATATATATATATATATATATGT [TGCATGCA_negctrl_site216]	9.09
GGTATACACAGACATGCATGTAATTATATATAGGGA [TGCATGCA_site83]	9.58
TTACAACATGAAAATGTGCACATATATATATATATA	9.25
TCGCCCTACAATTTGTTTATATATTAAATAAAATTT [CACACA_negctrl_site883]	9.26
AATATATTTAATCATACACACATTTATGTACCTATA [CACACA_site1718]	9.63
TGAAATTCCATAAAATGTACATATTAGTTTAATTCA [XGTACX_site4031]	8.96
CATCATCTTTTAAAGGTGCATAATAATATTGTTAAT	9.06
GTCTATTATTTTTGAAGTACAAAAATTTTAGTTAAA [XGTACX_site4708]	9.12
AAAGTAAAAAATCATAGTACACATTTAAATATATAT [XGTACX_site2323]	9.56
TAATATATCAAATGAAGTACTCACATATACATAATA [XGTACX_site6051]	9.3
GGTATATATTTATAATGTACATATTCATATATATAA [XGTACX_site3291]	9.23
TTTTTTAAATTATGTAGTACGATTCATTTTTTATAA [XGTACX_site1101]	8.98

Sequence	gcPBM binding intensity (ln)
AATATCTTAGTGGATACACACATATAAATGTGGATT [CACACA_site485]	9.31
AAGATTTTCCTTGATAGTACACTTATGAAAATTTGT [XGTACX_site3047]	9.11
ATATATTACGACTTCTGTACATAATATATAAAAGAA [XGTACX_site2353]	9.24
TTTTTTTTTTTTTTTTTTTTTTTGTCTTATTTTTTT [GTGCAC_negctrl_site338]	8.62
TGAATTAAGATTTATTGTACATAATTTATACCATAT [XGTACX_site7034]	9.15
TAAATTTATAGACACACACACATATAAATAAATATA [CACACA_site6530]	10
AATGTGCTCGCTATTACACACTCATTGGGATAAACT [CACACA_site7043]	9.39
TATATATATATATATTGTACATTTACCAAATTGTGT [XGTACX_site5791]	9.27
ATATAATATATATATTGTACATATATTTATAAGCAT [XGTACX_site3726]	9.2
TTTTTTTTTTTTTGCACACTTAAATTTGGAGTGTAG [CACACA_site2345]	9.06
TATATAAATAAATATACACACATATATAAATATACA [CACACA_site2982]	9.62
TTTAATAATAATACTAGTACACATTCTTTATTATTT [XGTACX_site2671]	9.37
TTTTTTTTTTTCGGGGGTACTAATATATTATTAATA [XGTACX_site7809]	9.79
GTTTTTAAGAAAAACACACACTCCTGTTATTTTATA [CACACA_site3696]	9.44
AACAAAATTGAAGGAACACACATACAGATATATATA [CACACA_site4264]	9.81
TAATAATTAATTAATATAATATTTTTTCATAATTAT [XGTACX_negctrl_site602]	8.93
ATAGAAAAAATATACACACACTTATTAAATAAAAAT [CACACA_site7540]	9.91
TAAAAAGTATATAAGAGTACACATATTTATAAATAT [XGTACX_site3084]	9.37
AGACTTTGTACAAACACACACATGAGCACAATATTA [CACACA_site6755]	9.74
TATATATCAATATGCACACACAAGAAGTAATTATAA [CACACA_site7487]	9.72
AACAAATTTTTTTTTCCTTTTTTTTTTTTACTTCAT [CACACA_negctrl_site1214]	9.28
ATAAACAAAGTTAAATGTACAAAGGGGTAAAAAAAA [XGTACX_site83]	9.44
ACACAATTGAAATAGTGTACAAAATGTTGTTACATA [XGTACX_site8671]	9.21

Sequence	gcPBM binding intensity (ln)
TTTTTTTTTCGGAAAAGTACAAAACTTTTTTATAAT [XGTACX_site4670]	8.72
TTATTAACCAAACGCACATGCAAAATATATTATATA [TGCATGCA_site915]	9.19
AAATAAATAATATGTAAACACACAAAAAATAAAAAT [CACACA_site8307]	9.72
TATAATGTTAAATAATGTACATATTTTTTTTTTTTT [XGTACX_site4721]	9.09
AAAGCTAATATTATATGTACTTATATATTTATATAT [XGTACX_site4474]	9.16
ATATAAATCTACACCGCACACAAAAACAACAAATAT [CACACA_site2506]	9.86
CATGTGCATATTAAATGTACATATATACATATATAC [XGTACX_site857]	9.19
ATATAGGTATTTAATACACACAAAACTTTCATTCCA [CACACA_site7627]	9.55
ATATAAATATATTGCACACACAATTATTATTATTAT [CACACA_site7147]	9.59
AAGGATGATACAACTTGTACATATTTGCTTAATATA [XGTACX_site764]	9.17
AATATATTTTTTCACTGTACTTTTATTATATATACA [XGTACX_site8312]	9.54
AAAAAAAATGGATGATCACACACTTCATAAAAATTG [CACACA_site2213]	9.42
ATAATTTTTTGATTTGCATGTAATAAATATATGATA [TGCATGCA_site384]	9.11
ATACAACGATATATATATATACAAATACATATTTAT [CACACA_negctrl_site268]	9.42
GATTTTTTTTTGTGGACACACAGAAATAAATTTATA [CACACA_site327]	9.09
CACATACAGATATATACACACAAATATATATACTCA [CACACA_site4591]	9.76
AGGATACACAGACACACACACATATATATATATATA [CACACA_site907]	9.82
TAAATAGATGTTTTATGTACGTATAAATAAAAAAAA [XGTACX_site3412]	9.15
TTTTTTTAAAGACATGCATGTAATATTTAAATCATT [TGCATGCA_site495]	8.98
ATTAAAAATATAGTCACACATACACCCATATATATT [CACACA_site5394]	9.58
